Assay results as given in the RNAGym collection of RNA variant scans (doi:10.1093/nar/gkz1192).
Read counts are not given, so values of variants with three or more changes are uncertain.

B1: CPEB3 Ribozyme (parent)
chain: UAACAGGGGGCCACAGCAGAAGCGUUCACGUCGCAGCCCCUGUCAGAUUCUGGUGAAUCUGCGAAUUCUGCUGUAUAUCUC

Variants of: B1
Assay: self-cleavage, relative activity (ratio to wild type); higher = more cleavage; in vitro, sequencing
Outline: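 CPEB3 self-cleaving ribozyme mutant libraries were made by rounds of error-prone PCR, barcoded, and transcribed in vitro with T7 RNA polymerase for 5 hours at 37°C. Cleavage occurred during transcription and a 15 min DNase I step before EDTA stop. RNAs were reverse transcribed with template switching and Illumina-sequenced, with DNA sequencing mapping barcodes to variants. Relative activity is the variant's cleaved/total read fraction divided by wild type's (minimum 5 reads), averaged across three batches.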
Variant UAACAGGGGGCCUCAGCAGAGGCGUUCACGUCACAGCCCCUGUCAGAUUCUGGUGAAUCUGCGAAUGCUGCUGUAUAUCUC has a self-cleavage of 0.05. In the case of UAACAGGGGGCCUCAGCAGAGGCGAUCACGUCGCAGCCCCAGUCAGAUUCUGGUGAAUCUGCGAAUUCUGCUGUAUAUCUC, the self-cleavage is reported as 0.12. Variant UAACAGGGGGCCUCAGCAGAGGCGUUCACGUCGCAGCCCCAGUCAGGUUCUGGUGGAUCUGCGAAUUCAGCUGUAUAUCUC has a self-cleavage of 0.05. UAACAGGGGGCCUCAGCAGAGGCGUUCACGACGCAGCCCCUGUCAGAUUCUGGUGAAUCUGCGAAUCCUGCUGUAUAUCUC showed a self-cleavage of 0.06. For UAACAGGGGGCCUCAGCAGAGGCGUUCACGUCGCAGCCCCUGUCAGACUCUGGAGAAUCUGCGAAUUCUGCUGUAUAUCUC, the self-cleavage was 0.17. With UAACAGGGGGCCUCAGCAGAGGCGUUCACGUCGCAGCCCCCGUCAGAUUCUGGUGAAUCUGCGGAUUCUGCUGUAUAUUUC the self-cleavage was 0.18. UAACAGGGGGCCUCAGCAGAGGCGAUCACGUCGCAGCUCCUGUCAGAUUCUGGUGAAUCUGCGAAUUCUGCAGUAUAUCUC showed a self-cleavage of 0.04. UAACAGGGGGCCUCAGCAGAGGCGUUCACGCCGCAGCCCCUGUCAGAUUCUGGUGAAACUGCGAUUUCUGCUGAAGAUCUC showed a self-cleavage of 0.04. For UAACAGGGGGCCUCAGCAGAGGCGUUCACGUCGCAGCCCCUGUCAGAUUCUGGUGAACCUGCGAAUUCUGCUGUAUAUCUC, the self-cleavage was 0.1. Work on UAACAGGGGGCCUCAGCAGAGGCGUUCACGUCGCAGCCCCUGUCAGAUUCUGGUGAAUCUGCGAACUCUGCUGUAUAUCUC yielded a self-cleavage of 1.1. In the case of UAACAGGGGGCCUCAGCAGAGGCGUUCACGUCGCAGCCCCAGCCAGAUUCUGGUGAAUCUGCGAACUCCGCUGUAUGUCUC, the self-cleavage is reported as 0.01. Variant UAACAGGGGGCCUCAGCAGAGGCGUUCACGUCGCAGCCCCAGUCAGAUUCUGGUGUAACUGCGAACUCUGCUGUAUACCUC has a self-cleavage of 0.06. With UAACAGGGGGCCUCAGCAGAGGCGUUCACGUCGCAGCCCCUGUCAGAUUCUGGUGAAUCUGUGAAUUCUGAUGUAUAUCUC the self-cleavage was 0.03. In the case of UAACAGGGGGCCUCAGCAGAGGCGUUCACGACGCAGCCCGUGUCAGAUCCUGGCGAAUCUGCGAAUUCUGCUGUAUAUCUC, the self-cleavage is reported as 0.08. UAACAGGGGGCCUCAGCAGAGGCGUCCACGUUGCAGCCCCAGUCAGAUUCUGGCGAAUCUGCGAAUUCCGCUGUAUAUCUC gave a self-cleavage of 0.4. For UAACAGGGGGCCUCAGCAGAGGCGUUCACGUCGCAGCCCCUGUCAGAUUCUGGUGAAUCUGCGGAUUCUGCUGUAUAUCUC, the self-cleavage was 0.26. Variant UAACAGGGGGCCUCAGCAGAGGCGUUCACGUCGCAGCCCCUGUCAGAUCCUGGAGAAUCUGCGAAUUCUGCUGUAUAUCUC has a self-cleavage of 0.23. For UAACAGGGGGCCUCAGCAGAGGCGUUCACAUCGCAGCCCCUGUCAGAUUCUGGUGAAUCUGCGAAUUCUGCUGUAUACCUC, the self-cleavage was 0.04. For UAACAGGGGGCCUCAGCAGAGGCGCUCACGUCGCAGCCCCUGUCGGAUUCUGGUGAAUCUGCGAAUUCUGCUGUAUUUCUC, the self-cleavage was 0.84. In the case of UAACAGGGGGCCUCAGCAGAGGCGUUCACGUCGCAGCCCCUGUCAGAUUCCGGUGAAUCCGCGAAUUCUGAUGUAUAUCUC, the self-cleavage is reported as 0.08. UAACAGGGGGCCUCAGCAGAGGCGUUCACGUCGCAGCCCCUGUCAGAUUCUGGUGAAUCCGCGAAUUCUGCCUUAUAUCUC showed a self-cleavage of 0.19. Work on UAACAGGGGGCCUCAGCAGAGGCGUUCACGGCGCAGCCCCUGUCAGAUUCUGGUGAAUCUGCGAAUUCUGCUGUAUAUCUC yielded a self-cleavage of 0.2. Variant UAACAGGGGGCCUCAGCAGAGGCGAUCACGUCGCAGCCCCUGUCAGAUUCUGGUGAAUCUGCGAAUUCUGCAGUAUCUCUC has a self-cleavage of 0.03. Work on UAACAGGGGGCCUCAGCAGAGGCGUUCACGUCGCAGCCCCAGUCAGAUUCUGGUGAAUCUGCGAAUUCUGCUGUAUAUCUC yielded a self-cleavage of 0.2. For UAACAGGGGGCCUCAGCAGAGGCGUUCACGUCGCAGCCCCCGUCAGAUUCUGGUGAAUCUGCGAAUUCUGCUGUAUAUCUC, the self-cleavage was 0.71. UAACAGGGGGCCUCAGCAGAGGCGUUCACGUCGCAGCCCCUGUCAGAUUCAGGUGAAUCUGUGAAUUCUGCUGUAUAUCUC showed a self-cleavage of 0.14. Work on UAACAGGGGGCCUCAGCAGAGGCGUUCACGUCGCAGCCCCUGUCAGAUUCUGGUGAAUCUGCGAAUACUGCUGUAUAUCUC yielded a self-cleavage of 0.08. Variant UAACAGGGGGCCUCAGCAGAGGCGUCCACGUCGCGGCCCCUGUCAGGUUCUGGCGAAUCAGCGAAUUCUGCUGUAUAUCUC has a self-cleavage of 0.17. UAACAGGGGGCCUCAGCAGAGGCGUUCACGUCGCAGCCCCUGUCAGAUCCUGGUGAACCUGCGAACUCUGCUGUAUAUCUC showed a self-cleavage of 0.09. In the case of UAACAGGGGGCCUCAGCAGAGGCGUCCACGUCGCAGCCCCAGUCAGAUUCUGGUGAAUCUGCGAAUUCUGCUGUAUAUCUC, the self-cleavage is reported as 0.03. Variant UAACAGGGGGCCUCAGCAGAGGCGUUCACGUCGCAGCCCCUGUCAGAUUCAGGUGAAUCUGCGAAUUGUGCUGUACAUCCC has a self-cleavage of 0.06. In the case of UAACAGGGGGCCUCAGCAGAGGCGUUCACAUCGCUGCCCCUGUCAGUUUCUGGUGUAUCUGCGAAUUCUGCUGUAUGUCUC, the self-cleavage is reported as 0.08. UAACAGGGGGCCUCAGCAGAGGCGUUCACGUCGCAGCCCCUGUCAGAUUCUGGUGAAUCGGCGAACUCUGCUGUAUAUCUC showed a self-cleavage of 0.3. Work on UAACAGGGGGCCUCAGCAGAGGCGUCCACGUCGCAGCCCCUGUCAGAUUCUGGUGAAUCUGCGUAUUCUGCUGUGUAUCUC yielded a self-cleavage of 0.13.
